# Hit rate of the full screen: of about 340,000 compounds, about 12,000 (3.5%) were called active. The inconclusive results got no clear call from the source; some entries with a clear call stand among them for comparison. Calls come from the whole dose curve; as a rule, active = well fitted inhibition curve with a large enough effect; inconclusive = small, poorly fitted or top-dose-only effect, or another doubt; inactive = no such curve, though single readings can be large or run the other way. Potencies of inconclusive entries are left out as doubtful fits.
# Experiment: qHTS Assay for Inhibitors of Hepatitis C Virus (HCV)
# Settings: Huh7.5.1 HCVcc-Cre (HCVcc is cell-culture hepatitis C virus) infection, luciferase reporter, 44 h; activity change, negative = inhibition: at 41.8 µM (top of the series) unless noted
# Procedure, shortened: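 Infectious HCVcc-Cre (~0.5 moi) was added to cells just after compound, with cells seeded 4 h earlier at 1,000 per well. Luciferase activity after 44 h culture reported infection; substrate was incubated 15 min at room temperature before reading.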
# % is set by controls: 0 for no effect and ±100 for the full control effect; potency is the fitted concentration of half-maximal effect; tags give direction and shape of the fitted curve.
SMILES,"activity change, negative = inhibition",Potency
Fc1ccccc1OCC1CCCN(Cc2nc(CC3CC3)no2)C1 (stereo not given),inactive: 10.8%,
S=C(NCc1ccco1)N1CCN(Cc2ccc(Cl)cc2Cl)CC1,,"inconclusive [inhibitor, single point]"
COc1ccc(C(F)(F)F)cc1N/C=C/c1nnnn1-c1ccc(C)cc1,,"inconclusive [inhibitor, full curve]"
CCOc1ccccc1NC(=O)CN1CCC(NC(=O)c2ccccc2C)CC1,,"inconclusive [inhibitor, single point]"
Cc1ccccc1NC(=O)CCc1nnc2ccc(N3CCC4(CC3)OCCO4)nn12,inactive: 4.22%,
COc1cccc(NC(=O)c2nc(SC)ncc2Cl)c1,inactive: 12%,
Cc1ccc(C)n1-c1ccsc1C(=O)CC#N,,"inconclusive [inhibitor, single point]"
O=C(NCN1CCCCC1)c1cccnc1,,"inconclusive [inhibitor, single point]"
O=C1Nc2ccccc2Oc2cc([N+](=O)[O-])cc(Oc3ccccc3)c21,,"inconclusive [inhibitor, single point]"
CC(C)(C)c1ccc(Oc2ccc(NC(=O)c3ccccc3C(=O)O)cn2)cc1,,"inconclusive [inhibitor, single point]"
Cc1cc(C(=O)N/N=C/c2ccc([N+](=O)[O-])cc2)c2ccccc2n1,inactive: -3.13%,
CCOc1ccc(CCNC(=O)c2ccc(S(=O)(=O)N3CCCC3)cc2)cc1OCC,,"inconclusive [inhibitor, partial curve]"
CC1(C)CC(=O)C(=CN2CCN(C(=O)c3ccco3)CC2)C(=O)C1,inactive: 17.9%,
CN(C)c1ncnc2c1ncn2C1OC(CO)C(O)C1O (stereo not given),,active: 4.47 µM
O=[N+]([O-])c1ccc(CSc2ncnc3c2ncn3[C@@H]2O[C@H](CO)[C@@H](O)[C@H]2O)cc1,,"inconclusive [inhibitor, single point]"
O=C(c1ccc(Cn2cc(Cl)cn2)o1)N1CCN(Cc2ccc3c(c2)OCO3)CC1,inactive: -11.3%,
Cc1ccc(S(=O)(=O)N2CCN(C(=O)c3cc(S(=O)(=O)N(C)C)ccc3N3CCCC3)CC2)cc1,,"inconclusive [inhibitor, single point]"
O=C(CCNc1ccc(F)cc1)c1cc2ccccc2o1,,"inconclusive [inhibitor, single point]"
COc1ccc(C(=O)Nc2ccc(C(=O)c3ccccc3)cc2)cc1,,"inconclusive [inhibitor, partial curve]"
c1ccc(SCCCCN2CCOCC2)cc1,inactive: 3.99%,
O=[N+]([O-])c1ccc(/C=N/Nc2nc(N3CCCCC3)nc(N3CCCCC3)n2)cc1,,"inconclusive [inhibitor, partial curve]"
OC(CNC1CCCCC1)C(F)(F)F (stereo not given),inactive: -15%,
Cc1cc([N+](=O)[O-])ccc1NC(=O)COc1nsnc1N1CCOCC1,,"inconclusive [inhibitor, partial curve]"

SMILES,"activity change, negative = inhibition",Potency
CC[C@]12c3[nH]c4ccc(OC)cc4c3CCN1C(=O)C(CC(=O)NCCCOC)C[C@@H]2C(=O)N1CCN(C(=O)c2ccco2)CC1 (stereo not given in full),,"inconclusive [inhibitor, single point]"
COc1ccc(CNC(=O)COC(=O)c2ccc(F)c(S(=O)(=O)N3CCOCC3)c2)cc1,inactive: 20.3%,
Cc1ccc2c(c1)N(C(=O)CSc1nncn1C)C(C)(C)c1ssc(=S)c1-2,,active: 10 µM
COc1ccc(C(=O)NN(C)c2nc(C(F)(F)F)nc3ccccc23)cc1,inactive: -2.69%,
CN(C)c1cccc(C(=O)OCC(=O)Nc2ccccc2Sc2ccccc2)c1,,"inconclusive [inhibitor, single point]"
COc1ccc(C(=O)NNC(=O)c2ccc(C)cc2)cc1S(=O)(=O)N1CCCC1,inactive: 7.79%,
O=C1NC(=S)SC1=Cc1cc(Br)ccc1O,inactive: 2.63%,
Cc1nccn1CC(O)COc1ccc(Cl)cc1Cl (stereo not given),,"inconclusive [inhibitor, single point]"
CC(=O)Nc1ccc(-c2cc(NC(C)=O)n(-c3ccccc3)n2)cc1,inactive: 4.58%,
O=[N+]([O-])c1cccn2cc(-c3ccc(Br)cc3)nc12,,"inconclusive [inhibitor, partial curve, poor fit]"
C/C(=N\NC(=S)Nc1c(C)cccc1C)c1ccc(O)cc1,inactive: -28%,
COc1ccc(CCNC(=O)CN2C(=O)NC3(CCc4ccccc43)C2=O)cc1 (stereo not given),,"inconclusive [inhibitor, partial curve]"
CSc1ccc(CN(C)CC(=O)NC(=O)NCCC2=CCCCC2)cc1,,"inconclusive [inhibitor, single point]"
COc1cc(C2OC(c3cc(OC)c(OC)c(OC)c3)C(C)C2C)cc(OC)c1OC (stereo not given),,"inconclusive [inhibitor, partial curve, poor fit]"
CCN(CC)S(=O)(=O)c1cc([N+](=O)[O-])ccc1NNC(=O)Nc1ccc(F)cc1,,"inconclusive [inhibitor, partial curve]"
O=C(NCc1ccc(Cl)cc1)c1noc2c1CCCCC2,,"inconclusive [inhibitor, single point]"
O=C(N/N=C/c1ccc([N+](=O)[O-])o1)c1sc2ccccc2c1Cl,,"inconclusive [inhibitor, single point]"
Cc1c(OCC(=O)N2CCN(c3ccccc3)CC2)ccc2c3c(c(=O)oc12)CCCC3,,"inconclusive [inhibitor, single point]"
Cc1ccc(NC(=O)Nc2ccc(F)cc2)nc1,,"inconclusive [inhibitor, single point]"
COc1ccc(CCNC(=O)c2cc(=O)[nH]c3ccc(Br)cc23)cc1OC,,"inconclusive [inhibitor, partial curve]"
O=[N+]([O-])c1ccccc1-c1ccc(C(=S)N2CCCC2)o1,,"inconclusive [inhibitor, full curve]"
COc1cc(-c2nc3ccc(C)cn3c2NCc2ccccc2)ccc1-c1cccc(Cl)c1,,"inconclusive [inhibitor, single point]"

# Source: PubChem BioAssay AID651820 (National Center for Advancing Translational Sciences (NCATS), 2012)
